One may read the IC50 as the concentration that gives 50% inhibition.

SMILES strings stand for the structures.

The target in this experiment is N-terminal truncated recombinant human PDE7B enzyme (Homo sapiens (Human), UniProt Q9NP56). Description: biochemical.
On to `CN(C)C1CCN(Cc2nc3cc(Cl)c4c(c3o2)C2(CCCCC2)NC(=O)N4)C1` (centres unmarked) [Example 140, 5-Chloro-2-{[3-(dimethylamino)pyrrolidin-1-yl]methyl}-7,8-dihydro-6H-spiro[[1,3]oxazolo[5,4-f]quinazoline-9,1′-cyclohexane]-7-one], for which the IC50 is 100 to 1000 nM.
Consider `CCN(CC)C(=O)CNCc1nc2cc(Cl)c3c(c2o1)C1(CCCCC1)NC(=O)N3` [Example 141, 2-({5-Chloro-7-oxo-7,8-dihydro-6H-spiro[[1,3]oxazolo[5,4-f]quinazoline-9,1′-cyclohexane]-2-ylmethyl}amino)-N,N-diethylacetamide], for which the IC50 was in the range of 10 to 100 nM.
To `C[C@H](NCc1nc2cc(Cl)c3c(c2o1)C1(CCCCC1)NC(=O)N3)C(=O)N(C)C` [Example 142, (2S)-2-({5-Chloro-7-oxo-7,8-dihydro-6H-spiro[[1,3]oxazolo[5,4-f]quinazoline-9,1′-cyclohexane]-2-ylmethyl}amino)-N,N-dimethylpropanamide] belongs 100 to 1000 nM; to `C[C@@H](NCc1nc2cc(Cl)c3c(c2o1)C1(CCCCC1)NC(=O)N3)C(=O)N(C)C` [Example 143, (2R)-2-({5-Chloro-7-oxo-7,8-dihydro-6H-spiro[[1,3]oxazolo[5,4-f]quinazoline-9,1′-cyclohexane]-2-ylmethyl}amino)-N,N-dimethylpropanamide], 10 to 100 nM; to `O=C1Nc2c(Cl)cc3nc(CNCC(=O)N4CCCC4)oc3c2C2(CCCCC2)N1` [Example 144, 5-Chloro-2-({[2-oxo-2-(pyrrolidin-1-yl)ethyl]amino}methyl)-7,8-dihydro-6H-spiro[[1,3]oxazolo[5,4-f]quinazoline-9,1′-cyclohexane]-7-one], 10 to 100 nM.
On to `O=C1Nc2c(Cl)cc3nc(CNC4CCOCC4)oc3c2C2(CCCCC2)N1` [Example 145, 5-Chloro-2-{[(oxan-4-yl)amino]methyl}-7,8-dihydro-6H-spiro[[1,3]oxazolo[5,4-f]quinazoline-9,1′-cyclohexane]-7-one], for which the IC50 was 10 to 100 nM.
Take `O=C1Nc2c(Cl)cc3nc(CNC4C5COCC54)oc3c2C2(CCCCC2)N1` (centres unmarked) [Example 146, 5-Chloro-2-[({3-oxabicyclo[3.1.0]hexan-6-yl}amino)methyl]-7,8-dihydro-6H-spiro[[1,3]oxazolo[5,4-f]quinazoline-9,1′-cyclohexane]-7-one]: the IC50 fell in the range of 10 to 100 nM.
For the molecule `O=C1Nc2c(Cl)cc3nc(CNC4CCCOCC4)oc3c2C2(CCCCC2)N1` (centres unmarked) [Example 147, 5-Chloro-2-{[(oxepan-4-yl)amino]methyl}-7,8-dihydro-6H-spiro[[1,3]oxazolo[5,4-f]quinazoline-9,1′-cyclohexane]-7-one], the half-inhibitory concentration (IC50) is 10 to 100 nM.
`O=C1Nc2c(Cl)cc3nc(CNCC4CCOC4)oc3c2C2(CCCCC2)N1` (centres unmarked) [Example 148, 5-Chloro-2-{[(oxolan-3-ylmethyl)amino]methyl}-7,8-dihydro-6H-spiro[[1,3]oxazolo[5,4-f]quinazoline-9,1′-cyclohexane]-7-one]: the IC50 fell in the range of 10 to 100 nM.
The figure for `O=C1Nc2c(Cl)cc3nc(CNCC(O)C(F)F)oc3c2C2(CCCCC2)N1` (centres unmarked) [Example 149, 5-Chloro-2-{[(3,3-difluoro-2-hydroxypropyl)amino]methyl}-7,8-dihydro-6H-spiro[[1,3]oxazolo[5,4-f]quinazoline-9,1′-cyclohexane]-7-one] is 10 to 100 nM.
On to `O=C1Nc2c(Cl)cc3nc(CNC4(C5CC5)CCOCC4)oc3c2C2(CCCCC2)N1` [Example 150, 5-Chloro-2-{[(4-cyclopropyloxan-4-yl)amino]methyl}-7,8-dihydro-6H-spiro[[1,3]oxazolo[5,4-f]quinazoline-9,1′-cyclohexane]-7-one], for which the IC50 is 10 to 100 nM.
With `CC1CC(NCc2nc3cc(Cl)c4c(c3o2)C2(CCCCC2)NC(=O)N4)CC(C)O1` (centres unmarked) [Example 151, 5-Chloro-2-{[(2,6-dimethyloxan-4-yl)amino]methyl}-7,8-dihydro-6H-spiro[[1,3]oxazolo[5,4-f]quinazoline-9,1′-cyclohexane]-7-one], the IC50 was 10 to 100 nM.
For the molecule `O=C1Nc2c(Cl)cc3nc(CN[C@H]4CCCOC4)oc3c2C2(CCCCC2)N1` [Example 152, 5-Chloro-2-({[(3S)-oxan-3-yl]amino}methyl)-7,8-dihydro-6H-spiro[[1,3]oxazolo[5,4-f]quinazoline-9,1′-cyclohexane]-7-one], the half-inhibitory concentration (IC50) fell in the range of 10 to 100 nM.
On to `O=C1Nc2c(Cl)cc3nc(CN[C@H]4CCOC4)oc3c2C2(CCCCC2)N1` [Example 153], for which the IC50 lay in the range of 10 to 100 nM.
To `CC1(NCc2nc3cc(Cl)c4c(c3o2)C2(CCCCC2)NC(=O)N4)CCOC1` (centres unmarked) [Example 154, 5-Chloro-2-{[(3-methyloxolan-3-yl)amino]methyl}-7,8-dihydro-6H-spiro[[1,3]oxazolo[5,4-f]quinazoline-9,1′-cyclohexane]-7-one] belongs 10 to 100 nM; to `O=C1Nc2c(Cl)cc3nc(CN[C@@H]4CCOC4)oc3c2C2(CCCCC2)N1` [Example 155, 5-Chloro-2-({[(3R)-oxolan-3-yl]amino}methyl)-7,8-dihydro-6H-spiro[[1,3]oxazolo[5,4-f]quinazoline-9,1′-cyclohexane]-7-one], 10 to 100 nM; to `COCCOC1CCN(Cc2nc3cc(Cl)c4c(c3o2)C2(CCCCC2)NC(=O)N4)CC1` [Example 156, 5-Chloro-2-{[4-(2-methoxyethoxy)piperidin-1-yl]methyl}-7,8-dihydro-6H-spiro[[1,3]oxazolo[5,4-f]quinazoline-9,1′-cyclohexane]-7-one], 100 to 1000 nM.
To `O=C1Nc2c(Cl)cc3nc(CN4CCN5CCC[C@H]5C4)oc3c2C2(CCCCC2)N1` [Example 157, 2-[(8aS)-Octahydropyrrolo[1,2-a]piperazin-2-ylmethyl]-5-chloro-7,8-dihydro-6H-spiro[[1,3]oxazolo[5,4-f]quinazoline-9,1′-cyclohexane]-7-one] belongs 100 to 1000 nM.
For `COC(=O)[C@@H]1CCN(Cc2nc3cc(Cl)c4c(c3o2)C2(CCCCC2)NC(=O)N4)C1` [Example 158, Methyl (3R)-1-{5-chloro-7-oxo-7,8-dihydro-6H-spiro[[1,3]oxazolo[5,4-f]quinazoline-9,1′-cyclohexane]-2-ylmethyl}pyrrolidine-3-carboxylate], the IC50 lay in the range of 10 to 100 nM.
To `O=C1Nc2c(Cl)cc3nc(CN4CCN(CC(F)F)CC4)oc3c2C2(CCCCC2)N1` [Example 159, 5-Chloro-2-{[4-(2,2-difluoroethyl)piperazin-1-yl]methyl}-7,8-dihydro-6H-spiro[[1,3]oxazolo[5,4-f]quinazoline-9,1′-cyclohexane]-7-one] belongs 100 to 1000 nM; to `CC1(CNCc2nc3cc(Cl)c4c(c3o2)C2(CCCCC2)NC(=O)N4)CCOC1` (centres unmarked) [Example 160, 5-Chloro-2-({[(3-methyloxolan-3-yl)methyl]amino}methyl)-7,8-dihydro-6H-spiro[[1,3]oxazolo[5,4-f]quinazoline-9,1′-cyclohexane]-7-one], 10 to 100 nM.
As to `O=C1Nc2c(Cl)cc3nc(CN[C@@H]4CCCOC4)oc3c2C2(CCCCC2)N1` [Example 161, 5-Chloro-2-({[(3R)-oxan-3-yl]amino}methyl)-7,8-dihydro-6H-spiro[[1,3]oxazolo[5,4-f]quinazoline-9,1′-cyclohexane]-7-one], the IC50 was 10 to 100 nM.
In the case of `O=C1Nc2c(Cl)cc3nc(CNC[C@H]4CCOC4)oc3c2C2(CCCCC2)N1` [Example 162, 5-Chloro-2-({[(3R)-oxolan-3-ylmethyl]amino}methyl)-7,8-dihydro-6H-spiro[[1,3]oxazolo[5,4-f]quinazoline-9,1′-cyclohexane]-7-one], the half-maximal inhibitory concentration (IC50) lay within 10 to 100 nM.

Source of the values: patent US11685745B2, “Substituted benzoxazole and benzofuran compounds as PDE7 inhibitors” (Dart NeuroScience, LLC, priority 2017, dated 2023).
